Assay results reported in PubChem BioAssay (NCI).
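Exposure lasted 48 hours, with cells grown in 96-well plates and compounds tested at five concentrations. GI50 = concentration required for 50% inhibition of growth. Definition used: TGI = concentration required for complete inhibition of growth.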

System: NCI-H322M lung
Assay: NCI anticancer screen, dose series, 48 h

SMILES | GI50 [µM] | TGI [µM]
CC(C)C[C@H](NC(=O)CNC(=O)C[C@H]1O[C@@H]2OC3(C)CC[C@H]4[C@H](C)CC[C@@H]([C@H]1C)[C@@]24OO3)B(O)O | 14.6 | > 65
Cn1cc(-c2cc(N)n3nc(-c4c[nH]c5ccc(Br)cc45)cc3n2)c2cc(Br)cnc21 | 2.21 | 7.43
Cc1ccc([N+](=O)[O-])c(C(=O)Nc2ccc(-c3ccc4c(c3)NC(=O)/C4=C\c3ccc[nH]3)cc2)c1 | > 100 | > 100
Cc1ccc(-c2nc3ccc(C(=O)N=Nc4c(O)[nH]c5ccc(Cl)cc45)cc3[nH]2)cc1 | 16.2 | > 100
O=C(/C=C/c1ccc(F)cc1)c1nc2ccccc2n1Cc1ccc(F)cc1 | 3.23 | 31.4
